Where a chain is given by its changes, count along the chain named.
T1: human MASP-1 (human, UniProt P48740 20-699)
T1 sequence: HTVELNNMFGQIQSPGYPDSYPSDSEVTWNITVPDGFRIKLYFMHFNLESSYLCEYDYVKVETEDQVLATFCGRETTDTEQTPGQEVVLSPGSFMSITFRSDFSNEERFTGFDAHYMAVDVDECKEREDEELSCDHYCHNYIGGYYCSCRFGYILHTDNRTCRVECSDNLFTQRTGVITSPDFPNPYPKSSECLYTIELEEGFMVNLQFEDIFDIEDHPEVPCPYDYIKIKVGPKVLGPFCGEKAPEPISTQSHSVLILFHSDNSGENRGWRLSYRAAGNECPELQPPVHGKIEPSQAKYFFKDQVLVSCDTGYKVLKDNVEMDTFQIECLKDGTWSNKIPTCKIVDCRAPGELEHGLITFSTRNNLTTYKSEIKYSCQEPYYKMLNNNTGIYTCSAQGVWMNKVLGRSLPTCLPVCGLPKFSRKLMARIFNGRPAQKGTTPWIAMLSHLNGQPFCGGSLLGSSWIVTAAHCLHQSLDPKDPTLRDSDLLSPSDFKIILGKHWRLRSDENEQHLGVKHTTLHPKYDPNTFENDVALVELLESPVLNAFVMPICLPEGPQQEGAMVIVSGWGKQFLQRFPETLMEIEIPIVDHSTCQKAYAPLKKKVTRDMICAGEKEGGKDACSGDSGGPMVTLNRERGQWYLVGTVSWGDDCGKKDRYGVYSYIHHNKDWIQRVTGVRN

B1: SGMI-1Fc (SGMI-1, linker and human IgG1-Fc) (Fc fusion)
chain: LEVTCEPGTTFKDKCNTCRCGSDGKSAFCTRKLCYQGTGGGSGSSSRS[not shown - human IgG1 Fc]
B2: SGMI-2Fc (SGMI-2, linker and human IgG1-Fc) (Fc fusion)
chain: B1 chain with F28V, R31K, K32L, L33W, Y35N

Columns and labels:
human MASP-1 = biological target: T1, human MASP-1; assay: cell-based or functional assay
human MASP-2 = human MASP-2 (human, UniProt O00187 16-686); assay: cell-based or functional assay
Sequence of human MASP-2 (O00187 16-686): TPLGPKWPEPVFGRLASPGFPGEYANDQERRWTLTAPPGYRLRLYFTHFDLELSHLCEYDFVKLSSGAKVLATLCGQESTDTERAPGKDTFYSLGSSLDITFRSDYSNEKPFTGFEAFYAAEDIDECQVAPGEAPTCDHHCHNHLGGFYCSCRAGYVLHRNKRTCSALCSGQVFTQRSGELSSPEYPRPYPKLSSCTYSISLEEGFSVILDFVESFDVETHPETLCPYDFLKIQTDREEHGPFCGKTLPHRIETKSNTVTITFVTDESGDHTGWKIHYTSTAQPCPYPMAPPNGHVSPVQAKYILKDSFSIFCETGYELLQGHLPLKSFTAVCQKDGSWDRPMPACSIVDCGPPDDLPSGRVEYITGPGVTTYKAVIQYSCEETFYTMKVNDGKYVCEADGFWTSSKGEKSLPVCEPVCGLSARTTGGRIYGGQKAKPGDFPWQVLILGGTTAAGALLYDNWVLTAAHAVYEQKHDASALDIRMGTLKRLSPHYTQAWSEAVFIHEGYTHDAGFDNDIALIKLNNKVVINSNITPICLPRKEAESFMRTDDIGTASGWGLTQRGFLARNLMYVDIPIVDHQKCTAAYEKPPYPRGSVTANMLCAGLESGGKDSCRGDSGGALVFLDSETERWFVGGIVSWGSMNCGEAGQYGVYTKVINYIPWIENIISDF

Binder	C3b deposition from 1% normal human serum on mannan-coated ELISA wells (IC50) (human MASP-1)	C3b deposition from 1% normal human serum on mannan-coated ELISA wells (IC50) (human MASP-2)
B1	~27 nM	
B2		~300 nM

Source: patent US20130273053A1 (UNIVERSITY OF LEICESTER, published 2013)
